Data taken from PubChem BioAssay AID2528 (National Center for Advancing Translational Sciences (NCATS), 2010).
Several values for one entry are separate records, joined by “and”; a condition that tells them apart may be missing. Equal values may be shown once. Among all 350,000 compounds or so, about 700 (0.2%) were called active. Calls come from the whole dose curve; as a rule, active = well fitted inhibition curve with a large enough effect; inconclusive = small, poorly fitted or top-dose-only effect; inactive = flat fitted curve, though single readings scatter. The list shows a part of the results, in another mix than the full data. The source holds several records for some structures; these can differ, active in one and inactive in another. Numbered stars: 1 amine (or outer) side, 2 acyl side, 3 side chain; on linkers, the order of the positions; unused ones are H or OH. Bridge positions count the residues as written; N and C are the ends. Square brackets hold non-standard residues; d marks the D form. Peptide text beside a SMILES is read from it. I, II: the chains in the order shown. Actinocin(9to1) = Cc1c2oc3c(C)ccc(C(=O)[*:1])c3nc-2c(C(=O)[*:2])c(N)c1=O; aThr = C[C@H](O)[C@H](N)C(=O)O; NMeV = CN[C@H](C(=O)O)C(C)C; Sar = CNCC(=O)O

What follows are compounds tested against RecQ-like DNA helicase BLM (Homo sapiens) (UniProt P54132) (assay: qHTS Assay for Inhibitors of Bloom's syndrome helicase (BLM)). Details: recombinant BLM DNA unwinding, fluorescence dequenching; series mostly up to 56.1 µM; activity change, negative = inhibition: at the top concentration.
Excerpt: Survival of cells and the faithful propagation of the genome depend on elaborate mechanisms of detecting and repairing DNA damage. Treatment of advanced cancer relies on radiation therapy or chemotherapy, which kill cancer cells by causing extensive DNA damage. It is often found, that cancer cells develop resistance to therapy through enhanced activity of DNA repair functions; this has led to an increased interest in developing drugs that interfere with DNA repair, which could sensitize cancer cells to conventional therapy.
This validation qHTS assay pertains to human BLM, which is important in resolving abnormal DNA structures formed during replication or homologous recombination. Shutting down the expression of BLM leads to chromosomal instability and higher radiation sensitivity in cultured cells.
The validation assay was a fluorescence quenching based kinetic qHTS for BLM Helicase DNA unwinding. The activity was measured as ATP-dependent separation of a 20-bp DNA duplex extended by 30-nt single-stranded tails (forked duplex). The forked DNA substrate was tagged with rhodamine fluorophore (carboxytetramethyl rhodamine, TAMRA) and BHQ-2 (Black Hole Quencher 2) dark quencher. Strand separation results in an increase in the fluorescence of TAMRA (excitation 525 nm, emission 598 nm). This substrate construct operates in a red-shifted region where very few compound library members have been noted to fluoresce (PubChem AIDs 593 and 594). An additional feature of the assay is the inclusion of 2.5 ug/ml poly (dIdC), to reduce interference by compounds such as DNA intercalators, a major source of false inhibitors.
Ian Hickson, University of Oxford
Opher Gileadi, Structural Genomics Consortium, University of Oxford
Screening Center PI: Austin, C.P.
Screening Center: NIH Chemical Genomics Center [NCGC]
Three uL of reaction buffer (25 mM Tris-HCl (pH 8.0), 5 mM NaCl, 2 mM MgCl2, 1mM DTT, 0.01% Tween- 20, and 2.5 ug/ml poly(dI-dC), including enzyme (50 nM BLM), were dispensed into a 1536-well Greiner black assay plate via solenoid-valve based nanoliter dispensers. Compounds (23 nl each in columns 5-48) and control (23 nl each in column 2 as dose-response) were transferred via a Kalypsys pintool equipped with a 1536-pin array. The plates were incubated for 15 min at room temperature, and then 1 ul of substrates (200 nM DNA and 2 mM ATP, final concentrations) was added to start the reaction. The plate was transferred into a ViewLux high-throughput CCD imager where the reaction progress was measured in a discontinuous kinetic mode (two reads spaced 2 hours apart, with intermediate room temperature incubation of the covered assay plate) by using standard red-fluorescence optics (excitation filter 525 nm, emission filter 598 nm). Enzyme-free and vehicle (DMSO) controls were included for signal normalization.
Note: nearly all actives have a fitted effect of over 35% in size.
Potency is the fitted concentration of half-maximal effect.

Chain of UniProt P54132 (P54132 whole entry, looked up): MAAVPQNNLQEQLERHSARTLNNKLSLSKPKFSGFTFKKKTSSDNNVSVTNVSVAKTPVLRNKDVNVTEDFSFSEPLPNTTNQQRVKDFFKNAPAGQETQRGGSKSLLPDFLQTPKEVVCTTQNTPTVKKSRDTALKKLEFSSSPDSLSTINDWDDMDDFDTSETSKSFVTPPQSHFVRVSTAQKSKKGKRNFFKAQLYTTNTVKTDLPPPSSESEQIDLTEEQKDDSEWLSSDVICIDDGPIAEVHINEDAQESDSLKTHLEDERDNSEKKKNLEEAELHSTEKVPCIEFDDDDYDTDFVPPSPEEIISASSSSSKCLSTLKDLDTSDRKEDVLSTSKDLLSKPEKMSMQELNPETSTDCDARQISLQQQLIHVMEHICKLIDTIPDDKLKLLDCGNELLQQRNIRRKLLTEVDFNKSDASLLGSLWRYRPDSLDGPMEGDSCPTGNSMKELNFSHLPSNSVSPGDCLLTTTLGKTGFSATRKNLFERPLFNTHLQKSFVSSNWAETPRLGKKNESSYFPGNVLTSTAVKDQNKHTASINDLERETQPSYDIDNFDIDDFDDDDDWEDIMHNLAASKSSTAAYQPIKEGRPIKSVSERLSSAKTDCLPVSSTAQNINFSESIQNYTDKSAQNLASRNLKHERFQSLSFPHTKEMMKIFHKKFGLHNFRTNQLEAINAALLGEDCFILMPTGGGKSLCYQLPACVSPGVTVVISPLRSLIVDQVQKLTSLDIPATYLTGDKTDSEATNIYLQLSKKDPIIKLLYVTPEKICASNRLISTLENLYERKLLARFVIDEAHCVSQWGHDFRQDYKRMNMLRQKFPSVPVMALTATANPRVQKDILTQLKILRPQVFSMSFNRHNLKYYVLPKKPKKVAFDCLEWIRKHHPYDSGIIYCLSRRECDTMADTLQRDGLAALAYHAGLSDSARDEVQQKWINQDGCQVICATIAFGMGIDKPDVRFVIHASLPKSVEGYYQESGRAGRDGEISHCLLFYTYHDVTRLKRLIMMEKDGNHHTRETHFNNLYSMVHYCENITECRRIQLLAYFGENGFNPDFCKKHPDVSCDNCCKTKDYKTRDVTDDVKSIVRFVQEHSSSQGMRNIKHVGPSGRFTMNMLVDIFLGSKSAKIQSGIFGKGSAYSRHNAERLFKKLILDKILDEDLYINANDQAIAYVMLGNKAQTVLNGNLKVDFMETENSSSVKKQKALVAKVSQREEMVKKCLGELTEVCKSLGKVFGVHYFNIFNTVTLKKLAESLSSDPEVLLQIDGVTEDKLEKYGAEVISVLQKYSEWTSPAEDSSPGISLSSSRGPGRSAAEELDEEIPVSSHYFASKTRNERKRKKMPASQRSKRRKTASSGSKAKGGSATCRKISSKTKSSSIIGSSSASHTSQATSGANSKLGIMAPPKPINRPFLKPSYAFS

| SMILES | Potency | activity change, negative = inhibition |
| --- | --- | --- |
| COc1ccc2c(c1OC)C(=O)OC2C1c2c(cc3c(c2OC)OCO3)CCN1C (centres undefined) | inactive |  |
| CCCN1C[C@H](CSC)C[C@@H]2c3cccc4[nH]cc(c34)C[C@H]21 | inactive |  |
| O=C1OC2(c3ccccc31)c1cc(I)c(O)c(I)c1Oc1c2cc(I)c(O)c1I | active: 22.4 µM |  |
| COc1cc(O)c2c(c1)oc(=O)c1c3cc(O)c(O)cc3oc21 | active: 17.8 µM and active: 12.6 µM |  |
| CCC(CNc1cc(OC)cc2cccnc12)NC1CCCCC1 (centres undefined) | active: 8.91 µM |  |
| CC(=O)SC1CC2=CC(=O)CC[C@@]2(C)C2CC[C@@]3(C)[C@@H](CC[C@@]34CCC(=O)O4)C12 (some centres undefined) |  | inactive: -8.34% |
| COc1cc2nc(N3CCN(C(=O)[C@H]4COc5ccccc5O4)CC3)nc(N)c2cc1OC |  | inactive: 23.8% |
| COC(=O)c1sc(-c2cccs2)cc1NC(=O)/C=C/C(=O)O | active: 15.8 µM |  |
| CCCCCC[C@@H]([C@@H](C)O)n1cnc2c(N)ncnc21 |  | inactive: 7.88% |
| CN1C(C)(C)CCCC1(C)C | inactive |  |
| Cc1cn(C2C=CC(CO)O2)c(=O)[nH]c1=O (centres undefined) |  | inactive: -11.3% |
| Cc1ccccc1NC1=C/C(=N\S(=O)(=O)c2cccs2)c2ccccc2C1=O | active: 20 µM |  |
| Cc1oncc1C(=O)Nc1ccc(C(F)(F)F)cc1 | inactive |  |
| O=C(O)c1cc(O)c2c(c1)C(=O)c1cccc(O)c1C2=O |  | inactive: 3.07% |
| Fc1ccc(C(c2ccc(F)cc2)N2CCN(C/C=C/c3ccccc3)CC2)cc1 | inactive |  |
| CCOC(=O)C1=C[C@@]2(CC)CCCN3CCc4c(n1c1ccccc41)C32 (some centres undefined) |  | inactive: 3.15% |
| Cc1cc(C)c(S(=O)(=O)Nc2cc(SCC(=O)O)c(O)c3ccccc23)cc1C | active: 15.8 µM |  |
| O=[N+]([O-])c1ccc(-c2nc(-c3ccc(F)cc3)c(-c3ccncc3)[nH]2)cc1 |  | inactive: -6.92% |
| COc1ccc(NC(=O)/C(C#N)=C\c2ccc(Br)o2)cc1 |  | inactive: -20.5% |
| O=C(O)C1Nc2c(O)cccc2C2C=CCC12 (centres undefined) | active: 4.47 µM |  |
| Cc1c2oc3c(C)ccc(C(=O)N[C@@H]4C(=O)N[C@@H](C(C)C)C(=O)N5CCC[C@@H]5C(=O)N(C)CC(=O)N(C)[C@@H](C(C)C)C(=O)O[C@H]4C)c3nc-2c(C(=O)N[C@@H]2C(=O)N[C@@H](C(C)C)C(=O)N3CCC[C@@H]3C(=O)N(C)CC(=O)N(C)[C@@H](C(C)C)C(=O)O[C@H]2C)c(N)c1=O (I: [aThr]V[dP][Sar][NMeV] / II: [aThr]V[dP][Sar][NMeV]; ester I:1-I:C, II:1-II:C; linker I:N-II:N via Actinocin(9to1)) |  | inactive: -17.9% |
| CN=C(NC#N)Nc1ccc(C2=NNC(=O)C[C@@H]2C)cc1 |  | inactive: 5.76% |
| C[N+]1(CCCCC[N+]2(C)CCCC2)CCCC1 | inactive |  |
| CC1=C(CC(=O)O)c2cc(F)ccc2/C1=C\c1ccc(S(C)=O)cc1 (centres undefined) | inactive |  |
| CC[C@H](NC(C)C)[C@H](O)c1ccc(O)c(O)c1 |  | inactive: 0.939% [at 21.4 µM] |

| SMILES | Potency | activity change, negative = inhibition |
| --- | --- | --- |
| C[C@]12CC[C@@H]3c4ccc(O)cc4CC[C@H]3[C@@H]1CC[C@@H]2O | inactive |  |
| COc1cc2c(ccc3cc(OC)c(OC)c(O)c32)cc1O | active: 25.1 µM |  |
| O=c1cc2oc3cc(O)c(O)cc3c(-c3ccccc3O)c-2cc1O | active: 6.31 µM |  |
| CCOC(=O)[C@@]12C[C@@H]1/C(=N/O)c1ccccc1O2 |  | inactive: 2.13% |
| OC(CN1CCC(Cc2ccc(F)cc2)CC1)c1ccc(Cl)cc1 (centres undefined) |  | inactive: -3.97% |
| COc1ccc(C(=O)C2CCCN(C(=O)CCc3scnc3C)C2)c(C)c1 (centres undefined) | active: 28.2 µM |  |
| Cc1cc(/C=N/NC(=O)C(O)(c2ccccc2)c2ccccc2)c(C)n1-c1cccc(C(=O)O)c1 | active: 10 µM |  |
| O=C(N/N=C/C=C/c1ccco1)c1cccs1 | active: 22.4 µM |  |
| C[n+]1cc2c3c(ccc2c2ccc4cc5c(cc4c21)OCO5)OCO3 | inactive |  |
| CCOc1ccccc1CNc1ccc(O)cc1 | active: 28.2 µM |  |
| CCCCCCCCCCCCCCCC(O)C(N)CO (centres undefined) |  | inactive: 0.0472% |
| CC(=O)O[C@]1(C(C)=O)CC[C@H]2[C@@H]3C=C(Cl)C4=CC(=O)[C@@H]5C[C@@H]5[C@]4(C)[C@H]3CC[C@@]21C |  | inactive: 2.59% |
| N[C@@H]1CONC1=O | inactive |  |
| N[C@@H](Cc1c[nH]c2ccc(O)cc12)C(=O)O |  | inactive: -4.51% |
| C[C@@](N)(C(=O)O)c1ccc(C(=O)O)cc1 | inactive |  |
| O=c1[nH]n2c(=O)c3c([nH]c2c1N=Nc1cccc(Cl)c1)CCC3 | active: 15.8 µM |  |
| O=C(/C=C\c1ccco1)c1ccc(NC(=O)c2ccco2)cc1 | active: 20 µM |  |
| S=c1[nH]nc(-c2cccnc2)n1/N=C/C=C/c1ccco1 | active: 20 µM |  |
| CC(=O)O[C@]1(C(C)=O)CC[C@@H]2[C@@H]3C=C(Cl)C4=CC(=O)[C@H]5C[C@@H]5[C@]4(C)[C@H]3CC[C@]21C |  | inactive: -1.3% [at 21.4 µM] |
| Clc1ccc(Cn2c(CN3CCCC3)nc3ccccc32)cc1 | inactive |  |
| COc1c(O)cc2c(=O)oc3c(OC)c(O)cc4c(=O)oc1c2c34 | active: 14.1 µM |  |
| CCOc1cc(/C=N/NC(=O)c2ccc(-c3csc(Nc4ccc(C)cc4)n3)cc2)ccc1OCC(=O)O | active: 15.8 µM |  |
| CC(=O)Oc1ccccc1C(=O)O |  | inactive: 3.35% |
| O=C(OCC(=O)N1CCN(C(=O)c2ccco2)CC1)c1cc(-c2ccco2)nc2ccccc12 | active: 8.91 µM |  |
